Measured values: the supplement of paper PMC12645437, “Orthogonal IMiD-Degron Pairs Induce Selective Protein Degradation in Cells” (ACS Chemical Biology, 2025)
This is one part of the list.

B1: Q9UKT9 (peptide)
chain: FYCEICGRFFTQKGNLLRHIKL
B2: Q9UKT9 (peptide)
chain: LFCNQCGFLCTQKGNLLRHIKL
B3: Q9UKT9 (peptide)
chain: FNCEICGRIFTQKGNLLRHIKL
B4: Q9UKT9 (peptide)
chain: FICNVCGAPFTQKGNLLRHIKL
B5: Q9UKT9 (peptide)
chain: FRCEVCGAQFTQKGNLLRHIKL
B6: Q9UKT9 (peptide)
chain: FHCDVCGAFFTQKGNLLRHIKL
B7: Q9UKT9 (peptide)
chain: FNCPICGHAFTQKGNLLRHIKL
B8: Q9UKT9 (peptide)
chain: FNCEICGRFFTQKGNLLRHIKL
B9: Q9UKT9 (peptide)
chain: FKCDICGAGFTQKGNLLRHIKL
B10: Q9UKT9 (peptide)
chain: FRCEQCGAEFTQKGNLLRHIKL
B11: Q9UKT9 (peptide)
chain: LQCPICGFCCTQKGNLLRHIKL
B12: Q9UKT9 (peptide)
chain: LDCNQCGFECTQKGNLLRHIKL
B13: Q9UKT9 (peptide)
chain: FICPQCGADFTQKGNLLRHIKL
B14: Q9UKT9 (peptide)
chain: FYCDICGASFTQKGNLLRHIKL
B15: Q9UKT9 (peptide)
chain: LECPICGFACTQKGNLLRHIKL
B16: Q9UKT9 (peptide)
chain: FICNQCGHCFTQKGNLLRHIKL
B17: Q9UKT9 (peptide)
chain: LQCPICGFTCTQKGNLLRHIKL
B18: Q9UKT9 (peptide)
chain: FGCSVCGHSFTQKGNLLRHIKL
B19: Q9UKT9 (peptide)
chain: FMCNQCGRWFTQKGNLLRHIKL
B20: Q9UKT9 (peptide)
chain: FMCEQCGANFTQKGNLLRHIKL
B21: Q9UKT9 (peptide)
chain: FQCEICGRIFTQKGNLLRHIKL
B22: Q9UKT9 (peptide)
chain: FLCDQCGAKFTQKGNLLRHIKL
B23: Q9UKT9 (peptide)
chain: FICEVCGAQFTQKGNLLRHIKL
B24: Q9UKT9 (peptide)
chain: FVCEQCGAMFTQKGNLLRHIKL
B25: Q9UKT9 (peptide)
chain: FVCEICGAKFTQKGNLLRHIKL
B26: Q9UKT9 (peptide)
chain: FQCDICGASFTQKGNLLRHIKL
B27: Q9UKT9 (peptide)
chain: FRCNICGATFTQKGNLLRHIKL
B28: Q9UKT9 (peptide)
chain: FACEVCGACFTQKGNLLRHIKL
B29: Q9UKT9 (peptide)
chain: FRCPQCGAAFTQKGNLLRHIKL
B30: Q9UKT9 (peptide)
chain: FACNQCGHVFTQKGNLLRHIKL
B31: Q9UKT9 (peptide)
chain: FACSVCGHLFTQKGNLLRHIKL
B32: Q9UKT9 (peptide)
chain: FNCPICGRDFTQKGNLLRHIKL
B33: Q9UKT9 (peptide)
chain: FKCNICGAGFTQKGNLLRHIKL
B34: Q9UKT9 (peptide)
chain: FYCNQCGAVFTQKGNLLRHIKL
B35: Q9UKT9 (peptide)
chain: FLCPICGRIFTQKGNLLRHIKL
B36: Q9UKT9 (peptide)
chain: FKCDICGAKFTQKGNLLRHIKL
B37: Q9UKT9 (peptide)
chain: FQCEICGRNFTQKGNLLRHIKL
B38: Q9UKT9 (peptide)
chain: FVCEICGHLFTQKGNLLRHIKL
B39: Q9UKT9 (peptide)
chain: FNCPICGRAFTQKGNLLRHIKL
B40: Q9UKT9 (peptide)
chain: LDCEICGFNCTQKGNLLRHIKL
B41: Q9UKT9 (peptide)
chain: FSCPVCGAHFTQKGNLLRHIKL
B42: Q9UKT9 (peptide)
chain: FECPQCGARFTQKGNLLRHIKL
B43: Q9UKT9 (peptide)
chain: FQCEICGRAFTQKGNLLRHIKL
B44: Q9UKT9 (peptide)
chain: FNCEICGHFFTQKGNLLRHIKL
B45: Q9UKT9 (peptide)
chain: FHCNVCGAKFTQKGNLLRHIKL
B46: Q9UKT9 (peptide)
chain: FGCNQCGAQFTQKGNLLRHIKL
B47: Q9UKT9 (peptide)
chain: FMCPICGHHFTQKGNLLRHIKL
B48: Q9UKT9 (peptide)
chain: LSCPICGFHCTQKGNLLRHIKL
B49: Q9UKT9 (peptide)
chain: FRCPQCGAQFTQKGNLLRHIKL
B50: Q9UKT9 (peptide)
chain: FECNQCGADFTQKGNLLRHIKL

target: no compound (DMSO); experiment: log2 fold change of degron read counts, EGFP-low vs EGFP+ sorted cells; higher = lower degron-EGFP level without compound (poor expression or instability); details: compound: DMSO control; 18 h
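Note: jurkat cells carrying a lentiviral library of mutant zinc finger degrons fused to EGFP plus mCherry, mCherry+ cells FACS sorted, degron abundance counted by next-generation sequencing.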

Sequence | log2 fold change of degron read counts
B1 | 0.47
B2 | 2.35
B3 | -1.08
B4 | -0.0114
B5 | -1.59
B6 | -0.502
B7 | -0.783
B8 | -0.728
B9 | -1.02
B10 | -1.7
B11 | 0.501
B12 | 0.176
B13 | -0.815
B14 | -1.1
B15 | 0.314
B16 | -0.239
B17 | 0.59
B18 | -0.455
B19 | 0.67
B20 | -1.5
B21 | -1.72
B22 | -1.47
B23 | -2.31
B24 | -1.09
B25 | -2.13

Sequence | log2 fold change of degron read counts
B26 | -1.92
B27 | -0.588
B28 | -1.75
B29 | -0.276
B30 | -0.216
B31 | 0.406
B32 | -0.391
B33 | -0.93
B34 | 0.289
B35 | 1.02
B36 | -1.85
B37 | -0.946
B38 | -0.789
B39 | -1.05
B40 | -0.125
B41 | -0.254
B42 | -0.0938
B43 | -1.39
B44 | 0.0129
B45 | -0.413
B46 | -0.535
B47 | -0.215
B48 | 0.814
B49 | -0.33
B50 | -1.87
